In the RNAGym collection of RNA variant scans (doi:10.7554/elife.90254):
The source gives no read counts; variants with many changes may rest on few reads.

B1: LINE1-full (parent)
chain: UACGUAGGUGGUUUUCCCCUGAUAGUGCUAAGGGGGCCUGGAAGUUUGGACUGGGCAGAGCUCAACACAGCGUGGCAAAGUGGCUGUGGCUAGACUGCCUCUCUGGAUUCCUCGUCACUCAGCAGGGCAUCUCUGAGAGAAAUGCC

Variants of: B1
Assay: self-cleavage, relative activity (ratio to wild type); higher = more cleavage; in vitro, sequencing; the parent is a self-cleaving ribozyme

Variant | self-cleavage
A50U A67G U132C | 0.19
U9A G34C A117G U119G | 1.15
C68U G70A U104A | 0.11
A69G U132C A138G | 0.67
U23C U108C U130C | 1.34
A6G U46C A64U A67G U134A | 0.5
A77G U96G U109C | 0
U26C A59G G82A | 0.08
U15G A65G A69U U102A U130C | 0
U13C U29C A140U | 1.02
A69G U102C A142G | 0
U12C U39A A43U U46C A79U U87C U112C | 0
A2G A42G G86A A129U A140U G144U | 0.33
U15A A64G A79G | 1.01
U5C A30G U96C U100C A117U | 0.92
U5C U26C U46C U81A | 1.56
U39C A64C U108C | 0.29
A43U G44A A107G U115C | 0.77
U62C G82A A141G | 0.03
U12G U87C A92U U115A | 0.35
U15A G21A U26A G32A | 0.92
C3U U104A U134C A136G | 1.25
U9A A43G G60A A69G G105A | 0.09
U23C U87A A141G | 0.09

Variant | self-cleavage
U20A A22G U102A A140C A142G U143A | 0.34
A50G C98G C128U | 0.04
U5C U14C A67G A142G | 0.85
U29C A65G A77U A124U | 0
U14C U104C U119C U134C | 1.93
G54A U134C A141G | 0.66
U39A A69U A138G | 0
U20C C76G A121U | 2.27
A43G C63U U87A | 0.06
U102C U134C A141G | 1.58
C63A U104C U108A | 0.07
C113U U130C U143C | 2.1
U47A A65G U96A A138G | 0.02
A59C U81C G93U | 0.1
U26C U29C U45A G53A U96C | 0.25
G60A A77G A129U A138G | 0.04
U20C A64G A67G | 0
A42U A79U U100C A140G | 2.47
U85A U87C A129G | 0.08
G36A U39C U91C | 0.9
U20C A64U C66A U102A | 0.05
G10A U12C C61U | 0.08
U14A U29C A107G A136U | 1.24
U12C A30G G33U | 0.9

Variant | self-cleavage
A22U U39C A78G | 0.95
U9A U47C U81A A140G A142G | 1.93
G54A U87C A141G | 0.1
A43G U47C A136G A140U | 2.21
U14C A78U U132A | 1.23
A2G U39A U47C | 1.06
U1C U13C U62C U85C | 0
G83A U91C G135U | 0.43
U20C U45C U47G A65U G74A A121G A124G | 0.11
U9C A79G A121U | 1.58
A6G U15C U46C U100C | 0
C37G U46C A64U U132A | 0.52
U47C U96C U119C | 0.71
G10A A121G U132C | 2.26
U45A U108C A140U | 0.54
U12C U73C U102C U115A U132C | 1.53
U87A U130A U134A | 0.15
U9C A30G G36U U46C A138G | 1.11
U12C G33U A107G G126A A141G | 2.04
A92G U104C A117U | 0.09
U14C U29C U62C U119C A142G | 0
U14C U20A A30G A67U A79U | 0.77
U23C U115C A129G | 1.84
U112C G126A A142G | 1.53

Variant | self-cleavage
U12G U115A G144U | 1.69
U9C U100C G135A | 1.56
A22G U108C A121G | 1.15
U12C G21A A141G | 1.38
U46A A59G U87A | 0.04
A43G C118A U119C | 0.4
C3U U39A G55U A142U | 0.06
U5C U46G A141G | 0.8
U5C A6U G41A U143A | 0.84
A79G U96C U130C A141G | 0.28
A67G G72A G114A | 0.35
C17U U100C A141G | 1.28
U1C A2C U12C | 0.35
C3U A50G C61G | 0.22
U29C A79U A107G U130C | 2.09
C19U C37G A67C A141U | 0.03
C19U A22G U96C A138G | 0
U20C G25A U45G U81A | 2.15
A6U G44A U100C A136G | 0.88
A6G G35A G53A A64G U134C | 0.2
U52A A59G U85A U104C | 0.28
C68U A107G U108A | 0.11
G74A U109C U143A | 0.65
C68U A77G A124C | 0.2

Variant | self-cleavage
U14C G70A U119A A124G | 0
U26C A43G U46A U81C A129C | 2.45
U5C G36A U100C | 0.74
A22G U62C A136U | 0.14
G48A U91C U132C | 0.46
U13A G34A A42C A141G | 0.35
A6G A65G A94U | 0.15
U39C U115A A124G U134A | 0.26
A42G U47A A65G A140U | 0.51
A65G U85C U134A | 0.12
G25A G49C A107G | 1.88
U13A U26A U52G A67G A77G | 0
U62G U96C C113A | 0
A22G U39A A59G | 0.13
U12C G33A A69G | 0.84
A50G A64G A141G | 0.41
A42G A67U U87A | 0.44
A67G A69U A136U | 0
G35C A107G U143C | 1.18
A24U C28U C111U A124G | 0.85
A92G A94U A121U | 0.06
U14C G35U U39C U46A U132C | 0.63
G126U A129G A138G | 1.81
U29A U46A U62C G125C | 0.01

Variant | self-cleavage
U47C C71U U81A | 1.21
U39C U104A U143G | 0.4
U20C A31G A124G | 0.84
U12C A43C A79G | 1.62
A2U U81A A107U U112C A121G | 1.15
U14C A30U A141G | 1.27
U12C A57U U115C U130C | 0.37
U23C A50U A138G | 1.38
A77G U91C A107G A129U | 0
U15A A92U U102C A107U A129G | 0
A42G A77U U96C U104C A140G | 0
G34U A43G U100A | 0.91
U96A C110G A129G U130C A140U | 0
G34A U81G U87C A124G | 0.21
A2U A42G U102C A117U | 1.25
U81A A94G U119C U130C | 0
U73C U85C A136G | 0
U12C U15C A59U U102C | 0.45
U9C U26C A30U A57U | 0.28
A2G A67G U143A | 1.34
U14C A79G A94G | 0.46
U26C U87A C90U | 0.04
G4C A43G U115A | 1.23
A50G U91C U96C C113U A129G | 0

Variant | self-cleavage
U73A G89A G106A U112C A138G | 0.02
G74A A78G A136G | 1.21
U15C A22G A65U A77G A142U | 0.53
A69G U115G A141G | 0.82
C19U U100C A140G | 0.63
A30U C98U U115C | 0.39
A30G G72A A107G U130C | 1.96
U14C A124G U134C | 1.31
U96G A117G U134C | 0
A69U G72A A92U U104A U130C | 0.02
U46C A77U U134C | 1.31
G35C C63U A129G | 0.26
U13C A107G A142G | 1.07
G7A U108C U134C | 1.67
U5C U73A U115C U130C | 2.72
G32U U73C A107U A140U | 2.07
U12G U15C U23A G41A | 1.21
A43G U73A C145U | 1.56
G74A A77U A94G A107G | 0.07
U52C U85A A129G | 0.14
U13C A77G A136U | 1.17
A31G G36A A43G A124U | 1.35
U62C A79G A136G | 0.07
